The text below walks through data of patent US12630643B2, “CD40 binding protein, bispecific conjugate thereof and method of treating cancer” (priority 2020, dated 2026).

Experiment [1] has as its system human monocyte-derived DC (MoDC). The experiment in a line: MoDC activation, IL-12p40 ELISA. Particulars: for IL-12 production: Example 12, 1:2 serial dilutions from 200 nM, 48 h; for IL-12 production (agonistic potential): Example 13, 100-12.5 nM, 48 hours. In kind it is cell-based.
The test system of a further experiment is human moDCs. The experiment is described as follows: Dendritic cell microscopy (clustering). In kind it is cell-based. Particulars: 200 nM and 1.6 nM.
Experiment [2] concerns human monocyte-derived DC (MoDC). The experiment in a line: MoDC activation, flow cytometry of surface activation markers (t-SNE). The note with it: Example 12; 200 nM. On the technique in general: A flow cytometer gives signals particle by particle.

B1: X-SM083-bi-26: bispecific: Y-SM083-B8 IgG2, FITC8 scFv at CH3, (G4S)2 linker (antibody)
heavy: [letters of about 100 residues omitted]YVWGIDYWGQGTLVTVSSASTKGPSVFPLAPCSRSTSESTAALGCLVKDYFPEPVTVSWNSGALTSGVHTFPAVLQSSGLYSLSSVVTVPSSNFGTQTYTCNVDHKPSNTKVDKTVERKCCVECPPCPAPPVAGPSVFLFPPKPKDTLMISRTPEVTCVVVDVSHEDPEVQFNWYVDGVEVHNAKTKPREEQFNSTFRVVSVLTVVHQDWLNGKEYKCKVSNKGLPAPIEKTISKTKGQPREPQVYTLPPSREEMTKNQVSLTCLVKGFYPSDIAVEWESNGQPENNYKTTPPMLDSDGSFFLYSKLTVDKSRWQQGNVFSCSVMHEALHNHYTQKSLSLSPGKGGGGSGGGGSEVQLLESGGGLVQPGGSLRLSCAASGFTFSNYWMSWVRQAPGKGLEWVSGISGNGGYTYFADSVKDRFTISRDNSKNTLYLQMNSLRAEDTAVYYCAGGDGSGWSFWGQGTLVTVSSGGGGSGGGGSGGGGSGGGGSQSVLTQPPSASGTPGQRVTISCTGSSSNIGAGYDVHWYQQLPGTAPKLLIYGNNNRPSGVPDRFSGSKSGTSASLAISGLRSEDEADYYCAAWDDSLSGRVFGGGTKLTVL
light: DIQMTQSPSSLSASVGDRVTITCRASQSISSYLNWYQQKPGKAPKLLIYAASSLQSGVPSRFSGSGSGTDFTLTISSLQPEDFATYYCQQGYGYPPFTFGQGTKLEIKRTVAAPSVFIFPPSDEQLKSGTASVVCLLNNFYPREAKVQWKVDNALQSGNSQESVTEQDSKDSTYSLSSTLTLSKADYEKHKVYACEVTHQGLSSPVTKSFNRGEC
In the case of B1, the IL-12 production entry in experiment [1] is listed as “did not induce a detectable level of IL-12 production at any antibody concentration”. Besides, in the experiment with human moDCs, the “dendritic cell clustering (activation)” value is on record as “induced almost no clustering”. For the same molecule, in experiment [2], the “CD83 and CD86 expression” value is “undetectable or almost undetectable levels of CD83 and CD86 expression”; the HLA-DR expression result was “minimal level of HLA-DR expression”.

B2: X-SM083-bi-23: bispecific: Y-SM083-A9 IgG2, FITC8 scFv at CH3, (G4S)2 linker (antibody)
heavy: EVQLLESGGGLVQPGGSLRLSCAASGFTFSSYAMSWVRQAPGKGLEWVSGISGYSGSTYYADSVKGRFTISRDNSKNTLYLQMNSLRAEDTAVYYCARYYSYYGYYYFDYWGQGTLVTVSSASTKGPSVFPLAPCSRSTSESTAALGCLVKDYFPEPVTVSWNSGALTSGVHTFPAVLQSSGLYSLSSVVTVPSSNFGTQTYTCNVDHKPSNTKVDKTVERKCCVECPPCPAPPVAGPSVFLFPPKPKDTLMISRTPEVTCVVVDVSHEDPEVQFNWYVDGVEVHNAKTKPREEQFNSTFRVVSVLTVVHQDWLNGKEYKCKVSNKGLPAPIEKTISKTKGQPREPQVYTLPPSREEMTKNQVSLTCLVKGFYPSDIAVEWESNGQPENNYKTTPPMLDSDGSFFLYSKLTVDKSRWQQGNVFSCSVMHEALHNHYTQKSLSLSPGKGGGGSGGGGSEVQLLESGGGLVQPGGSLRLSCAASGFTFSNYWMSWVRQAPGKGLEWVSGISGNGGYTYFADSVKDRFTISRDNSKNTLYLQMNSLRAEDTAVYYCAGGDGSGWSFWGQGTLVTVSSGGGGSGGGGSGGGGSGGGGSQSVLTQPPSASGTPGQRVTISCTGSSSNIGAGYDVHWYQQLPGTAPKLLIYGNNNRPSGVPDRFSGSKSGTSASLAISGLRSEDEADYYCAAWDDSLSGRVFGGGTKLTVL
light: DIQMTQSPSSLSASVGDRVTITCRASQSISSYLNWYQQKPGKAPKLLIYAASSLQSGVPSRFSGSGSGTDFTLTISSLQPEDFATYYCQQGYPYPFTFGQGTKLEIKRTVAAPSVFIFPPSDEQLKSGTASVVCLLNNFYPREAKVQWKVDNALQSGNSQESVTEQDSKDSTYSLSSTLTLSKADYEKHKVYACEVTHQGLSSPVTKSFNRGEC
As to B2, in experiment [1], the IL-12 production result was “induced the highest levels of IL-12 among the bispecific antibodies derived from the A9 clone” and the “IL-12 production (agonistic potential)” value is “retained their respective agonistic potential in a dose-dependent manner”. For the same molecule, the “expression of dendritic cell surface activation markers HLA-DR, CD83 and CD86” value in experiment [2] is recorded as “retained most of the agonistic activity of A9”.

B3: X-SM083-bi-31: bispecific: Y-SM083-A9 IgG2 C127S, FITC8 scFv at CH3, G4S linker (antibody)
heavy: EVQLLESGGGLVQPGGSLRLSCAASGFTFSSYAMSWVRQAPGKGLEWVSGISGYSGSTYYADSVKGRFTISRDNSKNTLYLQMNSLRAEDTAVYYCARYYSYYGYYYFDYWGQGTLVTVSSASTKGPSVFPLAPSSRSTSESTAALGCLVKDYFPEPVTVSWNSGALTSGVHTFPAVLQSSGLYSLSSVVTVPSSNFGTQTYTCNVDHKPSNTKVDKTVERKCCVECPPCPAPPVAGPSVFLFPPKPKDTLMISRTPEVTCVVVDVSHEDPEVQFNWYVDGVEVHNAKTKPREEQFNSTFRVVSVLTVVHQDWLNGKEYKCKVSNKGLPAPIEKTISKTKGQPREPQVYTLPPSREEMTKNQVSLTCLVKGFYPSDIAVEWESNGQPENNYKTTPPMLDSDGSFFLYSKLTVDKSRWQQGNVFSCSVMHEALHNHYTQKSLSLSPGKGGGGSEVQLLESGGGLVQPGGSLRLSCAASGFTFSNYWMSWVRQAPGKGLEWVSGISGNGGYTYFADSVKDRFTISRDNSKNTLYLQMNSLRAEDTAVYYCAGGDGSGWSFWGQGTLVTVSSGGGGSGGGGSGGGGSGGGGSQSVLTQPPSASGTPGQRVTISCTGSSSNIGAGYDVHWYQQLPGTAPKLLIYGNNNRPSGVPDRFSGSKSGTSASLAISGLRSEDEADYYCAAWDDSLSGRVFGGGTKLTVL
light: DIQMTQSPSSLSASVGDRVTITCRASQSISSYLNWYQQKPGKAPKLLIYAASSLQSGVPSRFSGSGSGTDFTLTISSLQPEDFATYYCQQGYPYPFTFGQGTKLEIKRTVAAPSVFIFPPSDEQLKSGTASVVCLLNNFYPREAKVQWKVDNALQSGNSQESVTEQDSKDSTYSLSSTLTLSKADYEKHKVYACEVTHQGLSSPVTKSFNRGEC
Take B3: the “IL-12 production (agonistic potential)” value in experiment [1] is on record as “retained their respective agonistic potential in a dose-dependent manner”.

B4: X-SM083-bi-32: bispecific: Y-SM083-A9 IgG2 C127S, FITC8 scFv at CH3, (G4S)4 linker (antibody)
heavy: EVQLLESGGGLVQPGGSLRLSCAASGFTFSSYAMSWVRQAPGKGLEWVSGISGYSGSTYYADSVKGRFTISRDNSKNTLYLQMNSLRAEDTAVYYCARYYSYYGYYYFDYWGQGTLVTVSSASTKGPSVFPLAPSSRSTSESTAALGCLVKDYFPEPVTVSWNSGALTSGVHTFPAVLQSSGLYSLSSVVTVPSSNFGTQTYTCNVDHKPSNTKVDKTVERKCCVECPPCPAPPVAGPSVFLFPPKPKDTLMISRTPEVTCVVVDVSHEDPEVQFNWYVDGVEVHNAKTKPREEQFNSTFRVVSVLTVVHQDWLNGKEYKCKVSNKGLPAPIEKTISKTKGQPREPQVYTLPPSREEMTKNQVSLTCLVKGFYPSDIAVEWESNGQPENNYKTTPPMLDSDGSFFLYSKLTVDKSRWQQGNVFSCSVMHEALHNHYTQKSLSLSPGKGGGSGGGSGGGSGGGSEVQLLESGGGLVQPGGSLRLSCAASGFTFSNYWMSWVRQAPGKGLEWVSGISGNGGYTYFADSVKDRFTISRDNSKNTLYLQMNSLRAEDTAVYYCAGGDGSGWSFWGQGTLVTVSSGGGGSGGGGSGGGGSGGGGSQSVLTQPPSASGTPGQRVTISCTGSSSNIGAGYDVHWYQQLPGTAPKLLIYGNNNRPSGVPDRFSGSKSGTSASLAISGLRSEDEADYYCAAWDDSLSGRVFGGGTKLTVL
light: DIQMTQSPSSLSASVGDRVTITCRASQSISSYLNWYQQKPGKAPKLLIYAASSLQSGVPSRFSGSGSGTDFTLTISSLQPEDFATYYCQQGYPYPFTFGQGTKLEIKRTVAAPSVFIFPPSDEQLKSGTASVVCLLNNFYPREAKVQWKVDNALQSGNSQESVTEQDSKDSTYSLSSTLTLSKADYEKHKVYACEVTHQGLSSPVTKSFNRGEC
As to B4, in experiment [1], the “IL-12 production (agonistic potential)” value is recorded as “retained their respective agonistic potential in a dose-dependent manner”.

B5: X-SM083-bi-33: bispecific: Y-SM083-A9 IgG2 C127S, FITC8 scFv at CL, (G4S)2 linker (antibody)
heavy: EVQLLESGGGLVQPGGSLRLSCAASGFTFSSYAMSWVRQAPGKGLEWVSGISGYSGSTYYADSVKGRFTISRDNSKNTLYLQMNSLRAEDTAVYYCARYYSYYGYYYFDYWGQGTLVTVSSASTKGPSVFPLAPSSRSTSESTAALGCLVKDYFPEPVTVSWNSGALTSGVHTFPAVLQSSGLYSLSSVVTVPSSNFGTQTYTCNVDHKPSNTKVDKTVERKCCVECPPCPAPPVAGPSVFLFPPKPKDTLMISRTPEVTCVVVDVSHEDPEVQFNWYVDGVEVHNAKTKPREEQFNSTFRVVSVLTVVHQDWLNGKEYKCKVSNKGLPAPIEKTISKTKGQPREPQVYTLPPSREEMTKNQVSLTCLVKGFYPSDIAVEWESNGQPENNYKTTPPMLDSDGSFFLYSKLTVDKSRWQQGNVFSCSVMHEALHNHYTQKSLSLSPGK
light: DIQMTQSPSSLSASVGDRVTITCRASQSISSYLNWYQQKPGKAPKLLIYAASSLQSGVPSRFSGSGSGTDFTLTISSLQPEDFATYYCQQGYPYPFTFGQGTKLEIKRTVAAPSVFIFPPSDEQLKSGTASVVCLLNNFYPREAKVQWKVDNALQSGNSQESVTEQDSKDSTYSLSSTLTLSKADYEKHKVYACEVTHQGLSSPVTKSFNRGECGGGGSGGGGSEVQLLESGGGLVQPGGSLRLSCAASGFTFSNYWMSWVRQAPGKGLEWVSGISGNGGYTYFADSVKDRFTISRDNSKNTLYLQMNSLRAEDTAVYYCAGGDGSGWSFWGQGTLVTVSSGGGGSGGGGSGGGGSGGGGSQSVLTQPPSASGTPGQRVTISCTGSSSNIGAGYDVHWYQQLPGTAPKLLIYGNNNRPSGVPDRFSGSKSGTSASLAISGLRSEDEADYYCAAWDDSLSGRVFGGGTKLTVL
For the molecule B5, the “IL-12 production (agonistic potential)” value in experiment [1] is recorded as “retained their respective agonistic potential in a dose-dependent manner”.
